The results in this text go back to PubChem BioAssay (NCI).

The subject of the test is NCI-H322M lung. The test can be described thus: NCI-60 cell line screen, 48 h.

Each structure is given as a SMILES string. Values joined by “and” are separate entries in the source; they are usually repeats but may differ in a detail not shown here. Equal entries are not always repeated.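 Assay format: 96-well plates, 48-hour exposure. GI50 marks 50% less growth. TGI: total growth inhibition.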 Peptide text beside a SMILES is read from it.

Regarding `CCOC(=O)CC(=O)NC1CC2CCC1(C)C2(C)C` (centres undefined), the TGI is > 100 µM.

For the compound `O=c1[nH]c2ccc(C(F)(F)F)cc2nc1-c1ccccc1`, the TGI was > 100 µM.

Turning to `CN1CCN(Cc2ccc(-c3cc4ncnc(Nc5ccc(OCc6cccc(F)c6)c(Cl)c5)c4s3)o2)CC1`, the GI50 was 3.78 µM and the TGI stood at 8.08 µM.

For the compound `O=P(c1ccccc1)(c1ccccc1)C1CC=C(c2ccccc2)C2(CCCC2)C1` (centres undefined), the TGI is > 100 µM.

Regarding `O=[N+]([O-])c1cnc(Sc2ccncn2)c([N+](=O)[O-])c1`, the GI50 was > 100 µM and the TGI was > 100 µM.

For the compound `COc1ccc(CN2C(=O)/C(=C\c3cc(OC)c(OC)c(OC)c3)c3cc(OC)ccc32)cc1`, the GI50 is 3.8 µM and the TGI is > 59.5 µM.

On to `CC1=C(C)C(=O)c2c(c(C(=O)c3ccccc3)c3nc4ccccc4n3c2C)C1=O`, for which the GI50 was > 100 µM and the TGI was > 100 µM.

With `Nc1ccccc1C#CC#Cc1ccccc1N`, the GI50 was 21.5 µM and the TGI turned out to be 42.8 µM.

In the case of `COc1ccc2[nH]c(CCNC(=O)c3cc([N+](=O)[O-])cc([N+](=O)[O-])c3)cc2c1`, the TGI is > 100 µM.

Consider `COc1ccc(C(=O)Cn2c(C(=O)c3ccc(OC)cc3)nc3ccccc32)cc1`, for which the GI50 was > 37.8 µM and the TGI is > 100 µM.

With `COc1cccc(-c2nn(-c3ccccc3)cc2-c2ccnc(NCCNS(=O)(=O)c3ccc(Cl)cc3)c2)c1`, the GI50 was 9.39 µM and the TGI is > 100 µM.

For the compound `Cc1[nH]c2ncn3nc(C(Cl)(Cl)Cl)nc3c2c1Cc1ccccc1`, the TGI is > 100 µM.

For `CCN(CC)C(=S)SS(=O)(=O)c1ccccc1C(=O)O`, the TGI was > 100 µM.

In the case of `COc1cccc(N2C(=O)c3c(c4[nH]c5ccccc5c4c4ccc(C(C)(C)C)cc34)C2=O)c1`, the TGI is > 100 µM.

As for `CCC1(C)C=Cc2c(cc(OC)c3c(=O)c4ccccc4n(C)c23)O1` (centres undefined), the TGI was > 10 µM.

Compound `CC(C(=O)N1C(=O)N(C(=O)C(C)C(O)c2ccccc2)C(c2ccccc2)C1c1ccccc1)C(O)c1ccccc1` (centres undefined) came in with a TGI of 81.4 µM.

On to `CCCN1C(=O)C/C(=C\C(C)=O)Nc2ccccc21`, for which the TGI was > 100 µM.

As to `CC(=O)/C(C=Nc1c(C)n(C)n(-c2ccccc2)c1=O)=C(/C)O`, the TGI was > 100 µM.

`CN1CCCN2CCN(C)CCN(CC1)CC2`: the TGI was > 100 µM.

As for `Oc1cccc2c1NC1=C(CCC/C1=C\c1ccccc1)C2`, the TGI was > 100 µM.

On to `O=C1NC(=O)C(C(=O)C(=O)Nc2ccc(Br)cc2)C(=O)N1`, for which the TGI was > 100 µM.

For `C=C1C(=O)O[C@@H]2[C@H]3O[C@]3(C)CCC=C(C)CC[C@@H]12`, the TGI stood at 55.3 µM.

As for `C[C@]12CC[C@@H]3c4ccc(O)cc4CC[C@H]3[C@@H]1C/C(=C\c1ccc([N+](=O)[O-])cc1)C2=O`, the TGI is > 100 µM.

Take `CCNc1nnc(CSc2nc(-c3ccccc3)c(-c3ccccc3)[nH]2)s1`: the TGI stood at 53.6 µM.

With `Cc1ccc(S(=O)ON2CCC(C(=O)O)(c3ccccc3)CC2)cc1` (centres undefined), the TGI is > 100 µM.

For the compound `O=c1c(O)c(-c2ccc(O)cc2O)oc2cc(O)cc(O)c12`, the TGI was > 100 µM.

`CCOC(=O)c1cc2cc(N(C(C)=O)C(C)=O)ccc2s1` showed a TGI of 95.2 µM.

Take `CC(=O)N1CCC2(C=Nc3ccccc32)CC1`: the TGI was > 100 µM.

`COc1ccc(OCC(=O)O)c2c1CCC(C(C)C)C2=O` (centres undefined): the TGI is > 100 µM.

Consider `Cn1cc(C(=O)c2nccc3c2cnc2ccccc23)ccc1=O`, for which the TGI was > 100 µM.

On to `O=C1/C(=C/c2cccc([N+](=O)[O-])c2)COc2ccc(O)c(O)c21`, for which the GI50 is 1.56 µM and the TGI is 2.99 µM.

As for `CC(=O)OCC1OC(On2ccccc2=S)C(OC(C)=O)C(OC(C)=O)C1OC(C)=O` (centres undefined), the TGI is > 100 µM.

With `Cc1[nH]c(=O)[nH]c(=O)c1N(CCF)CCCl`, the GI50 is 282 µM and 400 µM; the TGI was 1020 µM and 1620 µM and 1520 µM.

In the case of `Cc1cc(-c2ccc(C(=O)O)[nH]2)on1`, the TGI is > 100 µM.

Turning to `CC(O)C1OC(O)C2OC(C)(C)OC12` (centres undefined), the TGI was > 100 µM.

Take `COc1cc(/C=C(/C)[N+](=O)[O-])ccc1O`: the GI50 was 4.19 µM and 3.29 µM; the TGI was 8.89 µM and 13.3 µM.

In the case of `S=c1[nH]nc(COc2ccc3c(c2)CCCC3)n1/N=C/c1ccc(Cl)cc1`, the TGI stood at 37.3 µM.

In the case of `Cc1ccc(-c2c(C#N)c(-c3ccc(Cl)cc3)c(C#N)c(=O)n2NS(=O)(=O)c2ccccc2)cc1`, the TGI was > 100 µM.

On to `O=C1c2ccccc2-c2c1c1ccccc1c(=O)n2Cc1ccco1`, for which the TGI was > 100 µM.

Take `CCOc1c2ccsc2c(OCC)c2ccsc12`: the TGI was > 100 µM.

With `CCN1CC2=C(N=c3s/c(=C\c4ccc(Cl)cc4)c(=O)n3C2c2ccc(Cl)cc2)/C(=C/c2ccc(Cl)cc2)C1` (centres undefined), the TGI was > 100 µM.

Regarding `NC(N)=NCCCC(N=c1c2ccccc2n(O)c2ccccc12)C(=O)O` (centres undefined), the TGI is > 100 µM.

As for `O=C(Nc1ccc(Cl)c([N+](=O)[O-])c1)Nc1nc2ccccc2s1`, the GI50 was 3.59 µM and the TGI came to 12.7 µM.

Consider `Cc1ccc(C)c(NC(=O)C(=O)C2C(=O)C3=C(CC2(C)C)Nc2ccccc2S3)c1` (centres undefined), for which the TGI is > 100 µM.

Consider `CCCCCCCCCCCCN1C(C)=CS/C1=C\C=C\c1scc(C)[n+]1CCCCCCCCCCCC`, for which the GI50 was 3.49 µM and the TGI was determined as 44.2 µM.

Regarding `CS(=O)(=O)c1ccc(Oc2cc(F)cc(C#N)c2)c2c1[C@H](O)[C@H](F)[C@@H]2F`, the GI50 is > 100 µM and the TGI was > 100 µM.

For the compound `CN(C)CCNC(=O)c1ccc(Nc2nc3ccccc3c3occc23)cc1`, the GI50 is 2.66 µM and the TGI was found to be 7.85 µM.

In the case of `COC(=O)c1ccccc1C1CN=NC12Cc1ccc3ccccc3c1C2=O` (centres undefined), the TGI was > 100 µM.

Regarding `O=C(c1ccccc1)c1ccc(C(c2c(O)c3ccccc3oc2=O)c2c(O)c3ccccc3oc2=O)cc1`, the TGI amounted to 51.4 µM.

Take `Cn1ncc(=S)[nH]c1=S`: the TGI is > 100 µM.

For `CC1=C(/C=C/C(C)=C/C=C/C(C)=C/C(=O)OCC2OC(n3cc(F)c(=O)[nH]c3=O)CC2OC(=O)/C=C(C)/C=C/C=C(C)/C=C/C2=C(C)CCCC2(C)C)C(C)(C)CCC1` (centres undefined), the TGI is > 100 µM.

In the case of `CC(=O)N(C)OC(=O)CC(=O)c1ccccc1`, the TGI is > 100 µM.

On to `Cn1c(C(N)=O)cc2c1-c1nc(Nc3ccccc3)ncc1CCC2`, for which the GI50 is 4.51 µM and the TGI was 48.6 µM.

Regarding `CCCCCCCCCOC(=O)c1cnc(Cl)cn1`, the TGI was determined as 30.9 µM.

`Brc1cccc(/C=C/CN2CCN(CCOC(c3ccccc3)c3ccccc3)CC2)c1` had a TGI of 32.7 µM.

With `CC(C)C(C(=O)O)N(CC1(O)OCC(O)C(O)C1O)N=O` (centres undefined), the TGI was > 100 µM.

`Cc1ccc(/C=C2\CN(C)CC3=C2OC(N)=C(C#N)C3c2ccc(C)cc2)cc1` (centres undefined): the TGI was > 68.2 µM.

Turning to `COC(=O)C1(C)C=C(Nc2ccccc2)C(=O)N1c1ccccc1` (centres undefined), the TGI is > 100 µM.

For `CCCCCCCCC[C@@H]1C[C@@H]2CCC3C(C(=O)OC)=C(C)NC(=N1)N32` (some centres undefined), the TGI was 30.4 µM.

Take `CC1=C2C(O)C(C(C)C(=O)NCC(C)C)CCC2(C)C=CC1=O` (centres undefined): the TGI is > 100 µM.

For `CCOC(=O)C1C(=O)CC(O)(OCC)C(C(=O)OCC)C1c1ccc(OC)cc1` (centres undefined), the TGI is > 100 µM.

`COc1ccc(/C=C2\C=Cc3ccccc32)cc1OC`: the TGI was > 100 µM.

As to `CCc1ccc(-c2nnc(COc3ccc(-c4nc5ccc(C)cc5[nH]4)cc3OC)o2)cc1`, the GI50 is 3.8 µM and the TGI is > 100 µM.

Consider `COc1c2c(c(OC)c3c1c(=O)c1ccccc1n3C)OCO2`, for which the TGI was > 100 µM.

Regarding `CCN1C(=O)C/C(=C\C(C)=O)Nc2ccccc21`, the TGI is > 100 µM.

Regarding `O=C1C2C(C(=O)N1O)N(Cc1ccccc1)C(=O)N2Cc1ccccc1` (centres undefined), the TGI is > 100 µM.

With `Clc1ccc(-c2nn3c(CCCCCCCCc4nnc5sc(-c6ccc(Cl)cc6)nn45)nnc3s2)cc1`, the TGI is > 84.7 µM.

As to `COc1cc(Nc2cnc3cc(C(F)(F)F)ccc3n2)cc(OC)c1OC`, the TGI was > 100 µM.

Regarding `CCCC1NC(=O)C(CC(C)C)NC(=O)c2cccc(n2)C(=O)NC(CC(C)C)C(=O)NC(CCC)C(=O)NC(C(=O)OC)CCCCNC1=O` (centres undefined), the TGI was > 100 µM.

For `OCCN(CCO)N=Nc1ccc(-c2nc3ccccc3[nH]2)cc1`, the GI50 is 39.2 µM and the TGI is > 100 µM.

For the compound `CCOC(=O)/C(C#N)=C/c1ccc2c(-c3c(OCC)ccc4cc(/C=C(\C#N)C(=O)OCC)ccc34)c(OCC)ccc2c1`, the TGI is > 100 µM.

For `CN/N=C(/Cc1occc(=O)c1O)C(=O)Nc1ccc(C)c(C)c1`, the TGI is > 100 µM.

On to `O=C(Cn1c(=O)ccn(C2OC(CO)C(O)C2F)c1=O)c1ccc(F)cc1` (centres undefined), for which the TGI was > 100 µM.

Regarding `O=c1c2ccccc2nc2n1NC(c1c(Cl)cccc1Cl)N2c1cccc(Cl)c1` (centres undefined), the TGI came to 52.1 µM.

On to `C=C[C@@H]1OC(=O)O[C@H]1CO`, for which the TGI is > 100 µM.

On to `Cc1cc2c(cc1C)NC(=O)C(NC(=O)/C=C/c1ccccc1)C=N2` (centres undefined), for which the TGI is > 100 µM.

As to `CN(C)CCCNc1c(O)c2c(c(O)c1Cl)C(=O)C=CC2=O`, the TGI is 3.19 µM.

Regarding `CN(C)CCCCN1CCc2c(n(C)c3ccccc23)C1=O`, the GI50 is 81.1 µM and 26.8 µM; the TGI is > 100 µM and 72.2 µM.

Regarding `COC(=O)/C=C/c1cc(O)c2c(c1)C(C(=O)OC)C(c1ccc(O)c(O)c1)O2` (centres undefined), the GI50 was 6.57 µM and 5.76 µM; the TGI was 34.4 µM and 32.3 µM.

For the compound `COC(CN(C)C(=O)C(C)NC(=O)c1ccccc1)OC` (centres undefined), the TGI is > 100 µM.

Take `CC1NC(=O)CNC(=O)CNC(=O)C(Cc2ccc(O)cc2)NC(=O)C(C(C)C)NC(=O)C(C)NC1=O` (centres undefined) (cyclo(GGAAVY); configuration not given here): the TGI is > 100 µM.

As for `O=C(O)CC(C(=O)O)c1ccccc1[N+](=O)[O-]` (centres undefined), the TGI was > 100 µM.

As to `CCN(CC)CCn1c(C(C)(C)C)nc2ccccc21`, the TGI was > 100 µM.

As to `NC(=S)/N=C/c1c(O)c2ccccc2oc1=O`, the TGI is > 100 µM.

`Cc1ccc(Nc2nc(=S)[nH]c3[nH]ncc23)cc1`: the TGI was > 100 µM.

`CCNC(=O)C[C@@H]1N=C(c2ccc(Cl)cc2)c2cc(OC)ccc2-n2c(C)nnc21`: the GI50 was 5.47 µM and the TGI is > 100 µM.

As for `COc1ccc(C(=O)/C=C/c2ccc(O)c(O)c2F)c(OC)c1`, the GI50 was 4.14 µM; the TGI was 17.9 µM and 16.9 µM.

In the case of `CCOC(=O)c1c(C)n(Cc2ccccc2)c(=O)c2ccccc2c(=O)c2c(=O)ccc(=O)c1=2`, the TGI was > 100 µM.
